PubChem BioAssay (NCATS)
Some of the results follow. The main result of the screen is listed elsewhere. These columns were measured beside it and carry no call. For some assays here: Compounds called inactive in the main read-out are mostly missing here. The note in brackets gives the kind of curve behind each potency; many fits are weak.

How the values were obtained:
[1] = qHTS drug screen for cell cycle checkpoint inhibitors in PARPi-resistant BRCA-mutant ovarian cancer cell lines. (AID 1963452); settings: PEO1/OlaR viability, CellTiter-Glo luminescence, 96 h
In short: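 PEO1, PEO4 and PEO1/OlaR ovarian cancer cells, 600 per well, exposed 96 h at 37C to a dilution series. Viability read by CellTiter-Glo luminescence, normalized to DMSO and empty wells; activity summarized as Z-AUC.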

[2] = qHTS for identification of novel therapeutic agents for treatment of microphthalmiaassociated transcription factor (MiT) renal cell carcinoma (RCC) (AID 1963991); settings: CellTiter-Glo, 48 h; for z-score: stronger effect = lower value
In short: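 Curves over 11 concentrations were fitted to CellTiter-Glo luminescence, scaled between empty wells (0%) and DMSO (100%) viability. Cells were UOK109, UOK124 and UOK145 TFE3-fusion RCC lines at 500/well, exposed 48 hours at 37 C.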

[3] = measured here: PEO1 parental viability
[4] = TFE3-RCC UOK109 viability, measured here: UOK109 Z-AUC
[5] = TFE3-RCC viability, measured here: UOK124 Z-AUC
[6] = TFE3-RCC viability, measured here: UOK124 cell viability
[7] = TFE3-RCC viability, measured here: UOK145 Z-AUC
[8] = TFE3-RCC viability, measured here: UOK145 cell viability
Tags describe the fitted curve by direction and shape.

SMILES | AC50 [1, 3] | AC50 ([1]; measured here: PEO4 viability) | z-score [2, 4] | z-score [2, 5] | AC50 [2, 6] | z-score [2, 7] | AC50 [2, 8]
C=CC(=O)N1CCC[C@@H](n2nc(-c3ccc(Oc4ccccc4)cc3)c3c(N)ncnc32)C1 | 19.5 µM [falling, partial curve] | 19.5 µM [falling, single point] | -1.04 | -0.345 | 23.5 µM [falling, partial curve] | 0.486 | 23.5 µM [falling, partial curve]
COc1cc(OC2CCN(C)CC2)ccc1Nc1ncc2c(n1)n(C1CCCC1)c(=O)n2C | 11 µM [falling, partial curve] | 11 µM [falling, partial curve] | -0.526 | -0.0753 | 18.7 µM [falling, partial curve] | -0.355 | 20.9 µM [falling, partial curve]
CN1CCN(Cc2ccc(NC(=O)Nc3ccc(Oc4cc(NC(=O)C5CC5)ncn4)cc3)cc2C(F)(F)F)CC1 | 0.0436 µM [falling, full curve] | 0.0174 µM [falling, full curve, poor fit] | -0.521 | -2 | 3.32 µM [falling, partial curve, poor fit] | -2.03 | 1.66 µM [falling, full curve]
CC(=O)Nc1cccc(-n2c(=O)n(C3CC3)c(=O)c3c(Nc4ccc(I)cc4F)n(C)c(=O)c(C)c32)c1 | 0.0549 µM [falling, full curve] | 0.0138 µM [falling, full curve] | -1.27 | -0.397 | 0.935 µM [falling, partial curve] | -0.0729 | 0.526 µM [falling, partial curve, poor fit]
CC(C)(C)OC(=O)Nc1ccc(-c2cc(C(=O)NCCCCCCC(=O)NO)no2)cc1 | 3.89 µM [falling, full curve] | 4.36 µM [falling, partial curve] | -0.828 | -0.933 | 11.8 µM [falling, partial curve] | -0.219 | 14.8 µM [falling, partial curve]
Cc1ccc(NC(=O)c2ccc(CN3CCN(C)CC3)cc2)cc1Nc1nccc(-c2cccnc2)n1 | 11 µM [falling, partial curve, poor fit] | 15.5 µM [falling, single point] | -0.27 | 0.286 | 33.2 µM [falling, partial curve, poor fit] | -0.398 | 37.2 µM [falling, single point]
CCOC(CN1C(=O)[C@](CC(=O)Nc2ccc(C)cc2)(NC(=O)Nc2ccc(C)cc2)c2ccccc21)OCC | 24.5 µM [falling, single point] | 24.5 µM [falling, single point] | 0.0417 | 0.572 | 20.9 µM [falling, partial curve] | 0.0574 | 37.2 µM [falling, single point]
CC(C)CC(=O)Nc1n[nH]c2c1CN(C(=O)C1CCN(C)CC1)C2(C)C | 4.9 µM [falling, full curve] | 2.45 µM [falling, full curve] | -1.12 | 0.239 | 5.26 µM [falling, full curve] | -1.1 | 3.32 µM [falling, full curve]
CN1N=C(N)c2cn([C@@H]3O[C@H](COP(=O)(O)O)[C@@H](O)[C@@H]3O)c3ncnc1c23 | 3.09 µM [falling, full curve] | 2.19 µM [falling, partial curve] | -0.24 | -0.235 | 0.372 µM [falling, partial curve] | 0.165 | 5.9 µM [falling, partial curve]
Cc1cc(Nc2cc(N3CCN(C)CC3)nc(Sc3ccc(NC(=O)C4CC4)cc3)n2)n[nH]1 | 8.71 µM [falling, partial curve] | 0.549 µM [falling, partial curve, poor fit] | 0.825 | -0.0063 | 18.7 µM [falling, partial curve] | -0.228 | 18.7 µM [falling, partial curve]
CN(C)CC[C@H](CSc1ccccc1)Nc1ccc(S(=O)(=O)NC(=O)c2ccc(N3CCN(Cc4ccccc4-c4ccc(Cl)cc4)CC3)cc2)cc1[N+](=O)[O-] | 24.5 µM [falling, single point] | 4.36 µM [falling, full curve] | -0.898 | 0.201 | 16.6 µM [falling, partial curve] | 0.213 | 16.6 µM [falling, partial curve]
